US20260166128A1, “HUMAN AMYLIN ANALOG, AND DERIVATIVE THEREOF AND USE THEREOF” (priority 2022, published 2026)
At least one peptide structure holds a part that was inferred or is arguable (an end, a ring closure or a residue). Numbered stars: 1 amine (or outer) side, 2 acyl side, 3 side chain; on linkers, the order of the positions; unused ones are H or OH. Bridge positions count the residues as written; N and C are the ends. Side chains are listed from the residue outwards. Peptide text beside a SMILES is read from it. * marks the point of attachment. C20 diacid = O=C(O)CCCCCCCCCCCCCCCCCCC(=O)*; γGlu = O=C(O)[C@H](CCC(=O)[*:2])N[*:1]

Assay: Freeze-thaw stability of derivatives (freeze-thaw yield by liquid chromatography)
Assay type: physicochemical
Details: for Dissolution property: appearance after dissolution at 0.2 mg/ml in 20 mM phosphate buffer solution (PB) (pH 7.0); for Freeze storage property: appearance after overnight storage at −20° C. and thawing to room temperature, 0.2 mg/ml in 20 mM PB (pH 7.0); for Freeze storage yield: concentration of polypeptide after freezing and thawing / concentration before, by liquid chromatography, −20° C. overnight
Protocol: The freeze-dried powder of the polypeptide analog derivative prepared in Example 1 was mixed with a buffer solution according to a mass-volume ratio of 0.2 mg/ml, the polypeptide was dissolved with 20 mM phosphate buffer solution (PB) (pH 7.0), the sample was stored at −20° C. for overnight storage, and then the sample was taken out to be restored to room temperature for thawing. During the experiment, property changes of the polypeptide after dissolution and freezing and thawing were observed and recorded respectively, and concentrations of the polypeptide before and after the freezing and thawing were detected by the following liquid chromatography method: Materials and equipment: high-performance liquid chromatographic instrument (Agilent 1200), ultrapure water (18.2 MΩ self-manufactured ultrapure water), acetonitrile (HPLC grade), and trifluoroacetic acid (HPLC grade); and reversed-phase chromatographic column: […] A sample to be tested was centrifuged at 10,000 rpm and 4° C. for 3 minutes, and a supernatant was taken and added into a liquid-phase sample injection bottle. […] A freeze-thaw yield was calculated by the following formula: freeze-thaw yield=concentration of polypeptide after the freezing and thawing/concentration of polypeptide before the freezing and thawing.

| SMILES | Dissolution property | Freeze storage property | Freeze storage yield [%] |
| --- | --- | --- | --- |
| CC[C@H](C)[C@H](NC(=O)[C@H](C)NC(=O)[C@H](CCCCNC(=O)CC[C@H](NC(=O)CCCCCCCCCCCCCCCCCCC(=O)O)C(=O)O)NC(=O)[C@H](CC(C)C)NC(=O)[C@H](CC(N)=O)NC(=O)[C@H](CC(N)=O)NC(=O)[C@H](CO)NC(=O)[C@H](CO)NC(=O)[C@H](Cc1c[nH]cn1)NC(=O)[C@H](CCCNC(=N)N)NC(=O)[C@H](CC(C)C)NC(=O)[C@H](Cc1ccccc1)NC(=O)[C@H](CCC(=O)O)NC(=O)[C@H](C)NC(=O)[C@H](CC(C)C)NC(=O)[C@H](CCCNC(=N)N)NC(=O)[C@H](CCC(N)=O)NC(=O)[C@@H](NC(=O)[C@H](C)NC(=O)[C@@H]1CSSC[C@H](NC(=O)[C@@H](N)CCCNC(=N)N)C(=O)N[C@@H](CC(N)=O)C(=O)N[C@@H]([C@@H](C)O)C(=O)N[C@@H](C)C(=O)N[C@@H]([C@@H](C)O)C(=O)N1)[C@@H](C)O)C(=O)N[C@@H](CC(C)C)C(=O)N[C@@H](CO)C(=O)N1CCC[C@H]1C(=O)N[C@H](C(=O)N[C@@H](CC(N)=O)C(=O)N[C@H](C(=O)NCC(=O)N[C@@H](CO)C(=O)N[C@@H](CC(N)=O)C(=O)N[C@H](C(=O)N[C@@H](Cc1ccc(O)cc1)C(N)=O)[C@@H](C)O)C(C)C)[C@@H](C)O [PD021] (H-RCNTATCATQRLAEFLRHSSNNLK([γGlu-C20 diacid])AILSPTNVGSNTY-NH2; disulfide 2-7) | Muddy | Muddy | 21.35 |
| CC[C@H](C)[C@H](NC(=O)[C@@H]1CCCN1C(=O)[C@H](CCCCNC(=O)CC[C@H](NC(=O)CCCCCCCCCCCCCCCCCCC(=O)O)C(=O)O)NC(=O)[C@H](CC(C)C)NC(=O)[C@H](CC(N)=O)NC(=O)[C@H](CC(N)=O)NC(=O)[C@H](CO)NC(=O)[C@H](CO)NC(=O)[C@H](Cc1c[nH]cn1)NC(=O)[C@H](CCCNC(=N)N)NC(=O)[C@H](CC(C)C)NC(=O)[C@H](Cc1ccccc1)NC(=O)[C@H](CCC(=O)O)NC(=O)[C@H](C)NC(=O)[C@H](CC(C)C)NC(=O)[C@H](CCCNC(=N)N)NC(=O)[C@H](CCC(N)=O)NC(=O)[C@@H](NC(=O)[C@H](C)NC(=O)[C@@H]1CSSC[C@H](NC(=O)[C@@H](N)CCCNC(=N)N)C(=O)N[C@@H](CC(N)=O)C(=O)N[C@@H]([C@@H](C)O)C(=O)N[C@@H](C)C(=O)N[C@@H]([C@@H](C)O)C(=O)N1)[C@@H](C)O)C(=O)N[C@@H](CC(C)C)C(=O)N1CCC[C@H]1C(=O)N[C@@H](CO)C(=O)N[C@H](C(=O)N[C@@H](CC(N)=O)C(=O)N[C@H](C(=O)NCC(=O)N[C@@H](CO)C(=O)N[C@@H](CC(N)=O)C(=O)N[C@H](C(=O)N[C@@H](Cc1ccc(O)cc1)C(N)=O)[C@@H](C)O)C(C)C)[C@@H](C)O [PD022] (H-RCNTATCATQRLAEFLRHSSNNLK([γGlu-C20 diacid])PILPSTNVGSNTY-NH2; disulfide 2-7) | Muddy | Muddy | 72.10 |
| CC[C@H](C)[C@H](NC(=O)[C@@H]1CCCN1C(=O)[C@H](CCCCNC(=O)CC[C@H](NC(=O)CCCCCCCCCCCCCCCCCCC(=O)O)C(=O)O)NC(=O)[C@H](CC(C)C)NC(=O)[C@H](CC(N)=O)NC(=O)[C@H](CC(N)=O)NC(=O)[C@H](CO)NC(=O)[C@H](CO)NC(=O)[C@H](Cc1c[nH]cn1)NC(=O)[C@H](CCCNC(=N)N)NC(=O)[C@H](CC(C)C)NC(=O)[C@H](Cc1ccccc1)NC(=O)[C@H](CCC(=O)O)NC(=O)[C@H](C)NC(=O)[C@H](CC(C)C)NC(=O)[C@H](CCCNC(=N)N)NC(=O)[C@H](CCC(N)=O)NC(=O)[C@@H](NC(=O)[C@H](C)NC(=O)[C@@H]1CSSC[C@H](NC(=O)[C@@H](N)CCCNC(=N)N)C(=O)N[C@@H](CC(N)=O)C(=O)N[C@@H]([C@@H](C)O)C(=O)N[C@@H](C)C(=O)N[C@@H]([C@@H](C)O)C(=O)N1)[C@@H](C)O)C(=O)N[C@@H](CC(C)C)C(=O)N[C@@H](CO)C(=O)N1CCC[C@H]1C(=O)N[C@H](C(=O)N[C@@H](CC(N)=O)C(=O)N[C@H](C(=O)NCC(=O)N[C@@H](CO)C(=O)N[C@@H](CC(N)=O)C(=O)N[C@H](C(=O)N[C@@H](Cc1ccc(O)cc1)C(N)=O)[C@@H](C)O)C(C)C)[C@@H](C)O [PD023] (H-RCNTATCATQRLAEFLRHSSNNLK([γGlu-C20 diacid])PILSPTNVGSNTY-NH2; disulfide 2-7) | Muddy | Muddy | 64.54 |
| CC[C@H](C)[C@H](NC(=O)[C@H](C)NC(=O)[C@H](CCCCNC(=O)CC[C@H](NC(=O)CCCCCCCCCCCCCCCCCCC(=O)O)C(=O)O)NC(=O)[C@H](CC(C)C)NC(=O)[C@H](CC(N)=O)NC(=O)[C@H](CC(N)=O)NC(=O)[C@H](CO)NC(=O)[C@H](CO)NC(=O)[C@H](Cc1c[nH]cn1)NC(=O)[C@H](CCCNC(=N)N)NC(=O)[C@H](CC(C)C)NC(=O)[C@H](Cc1ccccc1)NC(=O)[C@H](CCC(=O)O)NC(=O)[C@H](C)NC(=O)[C@H](CC(C)C)NC(=O)[C@H](CCCNC(=N)N)NC(=O)[C@H](CCC(N)=O)NC(=O)[C@@H](NC(=O)[C@H](C)NC(=O)[C@@H]1CSSC[C@H](NC(=O)[C@@H](N)CCCNC(=N)N)C(=O)N[C@@H](CC(N)=O)C(=O)N[C@@H]([C@@H](C)O)C(=O)N[C@@H](C)C(=O)N[C@@H]([C@@H](C)O)C(=O)N1)[C@@H](C)O)C(=O)N[C@@H](CC(C)C)C(=O)N1CCC[C@H]1C(=O)N1CCC[C@H]1C(=O)N[C@H](C(=O)N[C@@H](CC(N)=O)C(=O)N[C@H](C(=O)NCC(=O)N[C@@H](CO)C(=O)N[C@@H](CC(N)=O)C(=O)N[C@H](C(=O)N[C@@H](Cc1ccc(O)cc1)C(N)=O)[C@@H](C)O)C(C)C)[C@@H](C)O [PD024] (H-RCNTATCATQRLAEFLRHSSNNLK([γGlu-C20 diacid])AILPPTNVGSNTY-NH2; disulfide 2-7) | Muddy | Muddy | 79.10 |
| CC[C@H](C)[C@H](NC(=O)[C@@H]1CCCN1C(=O)[C@H](CCCCNC(=O)CC[C@H](NC(=O)CCCCCCCCCCCCCCCCCCC(=O)O)C(=O)O)NC(=O)[C@H](CC(C)C)NC(=O)[C@H](CC(N)=O)NC(=O)[C@H](CC(N)=O)NC(=O)[C@H](CO)NC(=O)[C@H](CO)NC(=O)[C@H](Cc1c[nH]cn1)NC(=O)[C@H](CCCNC(=N)N)NC(=O)[C@H](CC(C)C)NC(=O)[C@H](Cc1ccccc1)NC(=O)[C@H](CCC(=O)O)NC(=O)[C@H](C)NC(=O)[C@H](CC(C)C)NC(=O)[C@H](CCCNC(=N)N)NC(=O)[C@H](CCC(N)=O)NC(=O)[C@@H](NC(=O)[C@H](C)NC(=O)[C@@H]1CSSC[C@H](NC(=O)[C@@H](N)CCCNC(=N)N)C(=O)N[C@@H](CC(N)=O)C(=O)N[C@@H]([C@@H](C)O)C(=O)N[C@@H](C)C(=O)N[C@@H]([C@@H](C)O)C(=O)N1)[C@@H](C)O)C(=O)N[C@@H](CC(C)C)C(=O)N1CCC[C@H]1C(=O)N1CCC[C@H]1C(=O)N[C@H](C(=O)N[C@@H](CC(N)=O)C(=O)N[C@H](C(=O)NCC(=O)N[C@@H](CO)C(=O)NCC(=O)N[C@H](C(=O)N1CCC[C@H]1C(N)=O)[C@@H](C)O)C(C)C)[C@@H](C)O [PD025] (H-RCNTATCATQRLAEFLRHSSNNLK([γGlu-C20 diacid])PILPPTNVGSGTP-NH2; disulfide 2-7) | Clear | Muddy | 102.64 |
| CC[C@H](C)[C@H](NC(=O)[C@@H]1CCCN1C(=O)[C@H](CCCCNC(=O)CC[C@H](NC(=O)CCCCCCCCCCCCCCCCCCC(=O)O)C(=O)O)NC(=O)[C@H](CC(C)C)NC(=O)[C@H](CC(N)=O)NC(=O)[C@H](CC(N)=O)NC(=O)[C@H](CO)NC(=O)[C@H](CO)NC(=O)[C@H](Cc1c[nH]cn1)NC(=O)[C@H](CCCNC(=N)N)NC(=O)[C@H](CC(C)C)NC(=O)[C@H](Cc1ccccc1)NC(=O)[C@H](CCC(=O)O)NC(=O)[C@H](C)NC(=O)[C@H](CC(C)C)NC(=O)[C@H](CCCNC(=N)N)NC(=O)[C@H](CCC(N)=O)NC(=O)[C@@H](NC(=O)[C@H](C)NC(=O)[C@@H]1CSSC[C@H](NC(=O)[C@@H](N)CCCNC(=N)N)C(=O)N[C@@H](CC(N)=O)C(=O)N[C@@H]([C@@H](C)O)C(=O)N[C@@H](C)C(=O)N[C@@H]([C@@H](C)O)C(=O)N1)[C@@H](C)O)C(=O)N[C@@H](CC(C)C)C(=O)N[C@@H](CO)C(=O)N[C@@H](CO)C(=O)N[C@H](C(=O)N[C@@H](CC(N)=O)C(=O)N[C@H](C(=O)NCC(=O)N[C@@H](CO)C(=O)NCC(=O)N[C@H](C(=O)N1CCC[C@H]1C(N)=O)[C@@H](C)O)C(C)C)[C@@H](C)O [PD027] (H-RCNTATCATQRLAEFLRHSSNNLK([γGlu-C20 diacid])PILSSTNVGSGTP-NH2; disulfide 2-7) | Muddy | Muddy | 58.88 |
